# Measured values published in PubChem BioAssay AID504333 (National Center for Advancing Translational Sciences (NCATS), 2011).
# About 16,000 (4.4%) of roughly 360,000 compounds were called active. Inconclusive means that the source gave no clear call. Such entries were picked first, then a sample of the others. The call rests on the fitted dose curve; in most records, active means well fitted inhibition curve with a large enough effect; inconclusive means small, poorly fitted or top-dose-only effect; inactive means no such curve, though single readings can be large or run the other way. Potencies of inconclusive entries are doubtful fits and often do not repeat.
# Target: Bromodomain adjacent to zinc finger domain protein 2B (Homo sapiens) (UniProt Q9UIF8)
# Chain of UniProt Q9UIF8 (Q9UIF8 whole entry, looked up, the tested form may be a part): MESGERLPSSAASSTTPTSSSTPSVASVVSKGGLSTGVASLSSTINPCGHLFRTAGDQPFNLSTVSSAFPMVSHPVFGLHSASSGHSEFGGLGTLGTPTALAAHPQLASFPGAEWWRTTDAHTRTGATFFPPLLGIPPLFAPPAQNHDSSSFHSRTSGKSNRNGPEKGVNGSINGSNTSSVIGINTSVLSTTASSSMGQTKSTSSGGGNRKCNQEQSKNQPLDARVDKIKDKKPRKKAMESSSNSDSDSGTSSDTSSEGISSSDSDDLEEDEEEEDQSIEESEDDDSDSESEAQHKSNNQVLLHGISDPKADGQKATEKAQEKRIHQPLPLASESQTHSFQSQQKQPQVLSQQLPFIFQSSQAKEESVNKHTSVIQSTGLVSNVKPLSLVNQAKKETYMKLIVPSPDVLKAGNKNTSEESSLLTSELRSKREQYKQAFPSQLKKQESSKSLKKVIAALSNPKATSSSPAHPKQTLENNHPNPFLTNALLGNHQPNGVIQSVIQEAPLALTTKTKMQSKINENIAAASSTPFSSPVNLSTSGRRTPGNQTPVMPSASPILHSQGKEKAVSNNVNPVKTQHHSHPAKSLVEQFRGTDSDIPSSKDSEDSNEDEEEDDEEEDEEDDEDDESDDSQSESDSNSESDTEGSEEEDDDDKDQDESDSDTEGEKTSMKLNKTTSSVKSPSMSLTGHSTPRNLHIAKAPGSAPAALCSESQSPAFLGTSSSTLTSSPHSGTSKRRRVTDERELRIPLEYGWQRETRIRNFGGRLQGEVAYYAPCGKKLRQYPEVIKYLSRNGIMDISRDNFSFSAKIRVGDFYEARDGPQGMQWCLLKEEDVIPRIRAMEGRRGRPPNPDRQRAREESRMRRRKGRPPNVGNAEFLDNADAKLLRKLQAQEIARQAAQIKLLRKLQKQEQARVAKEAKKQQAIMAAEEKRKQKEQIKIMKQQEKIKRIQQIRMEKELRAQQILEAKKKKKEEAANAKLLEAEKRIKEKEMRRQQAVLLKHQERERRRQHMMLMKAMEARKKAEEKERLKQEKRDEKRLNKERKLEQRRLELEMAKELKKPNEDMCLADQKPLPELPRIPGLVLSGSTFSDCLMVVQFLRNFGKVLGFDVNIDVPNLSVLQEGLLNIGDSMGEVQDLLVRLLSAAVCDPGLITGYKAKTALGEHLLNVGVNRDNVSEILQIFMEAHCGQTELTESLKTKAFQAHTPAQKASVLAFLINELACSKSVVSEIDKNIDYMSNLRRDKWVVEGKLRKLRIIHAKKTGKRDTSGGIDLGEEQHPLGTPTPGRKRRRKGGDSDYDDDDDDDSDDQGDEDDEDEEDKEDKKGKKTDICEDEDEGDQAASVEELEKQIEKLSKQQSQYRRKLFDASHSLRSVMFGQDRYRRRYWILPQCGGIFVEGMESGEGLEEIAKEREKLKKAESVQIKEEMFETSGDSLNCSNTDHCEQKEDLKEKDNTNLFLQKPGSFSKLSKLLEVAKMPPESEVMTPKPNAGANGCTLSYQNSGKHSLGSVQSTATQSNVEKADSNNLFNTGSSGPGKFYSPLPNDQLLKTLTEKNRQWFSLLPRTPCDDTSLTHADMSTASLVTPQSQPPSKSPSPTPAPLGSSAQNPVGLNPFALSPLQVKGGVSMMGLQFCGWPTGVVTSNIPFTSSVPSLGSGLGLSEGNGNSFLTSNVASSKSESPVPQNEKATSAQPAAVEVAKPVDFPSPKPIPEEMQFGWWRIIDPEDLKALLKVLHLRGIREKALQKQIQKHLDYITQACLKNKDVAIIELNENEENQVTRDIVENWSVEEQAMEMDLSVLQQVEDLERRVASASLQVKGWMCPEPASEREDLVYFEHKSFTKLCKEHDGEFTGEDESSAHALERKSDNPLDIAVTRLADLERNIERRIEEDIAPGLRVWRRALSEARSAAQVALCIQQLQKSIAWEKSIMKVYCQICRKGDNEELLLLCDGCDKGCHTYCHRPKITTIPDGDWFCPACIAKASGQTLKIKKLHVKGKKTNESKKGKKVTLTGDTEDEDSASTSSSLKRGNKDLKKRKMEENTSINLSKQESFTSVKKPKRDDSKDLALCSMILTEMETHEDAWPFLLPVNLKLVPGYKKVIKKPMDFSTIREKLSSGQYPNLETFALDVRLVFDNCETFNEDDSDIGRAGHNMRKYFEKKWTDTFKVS
# Test: qHTS Assay for Inhibitors of BAZ2B; further: nearly all actives have a fitted effect of over 60% in size
# Details: AlphaScreen BAZ2B-H3K14Ac peptide displacement; series mostly up to 114 µM
# Method in brief: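 AlphaScreen luminescence quantifies BAZ2B engagement of H3K14Ac peptide; the protein and biotinylated peptide are both at 50 nM final, buffer PBS pH 7.4 with 0.01% Tween-20, all steps at room temperature.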
# Potency means the concentration at half of the fitted maximal effect; tags describe the fitted curve by direction and shape.
row,Compound,Potency
1,CCOCCCNC(=O)CCC(=O)NNc1nc2ccccc2c2nc(C)nn12,"inconclusive: 56.2 µM [inhibitor, partial curve]"
2,Cc1ccc(NC(=O)C2CCCN2S(=O)(=O)c2ccc3c(c2)n(C)c(=O)c(=O)n3C)cc1 (centres undefined),inactive
3,CC(C)(C)NC(=O)CN(C(=O)CS(=O)CC(=O)Nc1ccc(F)cc1)c1ccc2c(c1)OCCO2 (centres undefined),inactive
4,COc1cccc(Nc2nc(-c3ccc(O)cc3)cs2)c1,"inconclusive: 50.1 µM [inhibitor, partial curve]"
5,COc1ccc(-n2cnc3cc(C(=O)NCCC4=CCCCC4)ccc32)cc1,inactive
6,CCC(Sc1nc(C)cc(C)n1)C(=O)Nc1nccs1 (centres undefined),"inconclusive: 79.4 µM [inhibitor, partial curve]"
7,COc1cc(/C=C/[N+](=O)[O-])ccc1OC(=O)c1cc2ccccc2oc1=O,"inconclusive: 100 µM [inhibitor, single point]"
8,CC(=O)Nc1cccc(NC(=S)Nc2cccc3ccccc23)c1,"inconclusive: 50.1 µM [inhibitor, partial curve]"
9,COCCNC(=O)COc1ccc(Oc2ccccc2)cc1,inactive
10,CC(=O)c1cccc(NC(=O)CSc2nnc(-c3ccncc3)o2)c1,inactive
11,CN(C)CCN=Cc1c(O)n(Cc2ccc3c(c2)OCO3)c(=O)c2ccccc12,"inconclusive: 50.1 µM [inhibitor, partial curve]"
12,COc1ccc(NC(=O)C2CCCN(S(=O)(=O)c3cccc4nonc34)C2)c(OC)c1 (centres undefined),"inconclusive: 89.1 µM [inhibitor, partial curve, poor fit]"
13,COc1ccc(CNC(=O)C(=O)NCC2OCCN2S(=O)(=O)c2ccc(C)cc2)cc1 (centres undefined),"inconclusive: 89.1 µM [inhibitor, single point]"
14,CC(C)C(=O)N1CCN(c2ccc([N+](=O)[O-])c(NC(C)c3ccccc3)c2)CC1 (centres undefined),"inconclusive: 44.7 µM [inhibitor, full curve]"
15,Cc1ccc2[nH]c3c(c2c1)CN(C)CC3,"inconclusive: 79.4 µM [inhibitor, single point]"
16,Cc1ccc(CNC(=O)C(=O)NCC(c2cccs2)S(=O)(=O)c2ccccc2)cc1 (centres undefined),inactive
17,Cc1cc(N2CCOCC2)nc2ccc(NC(=S)NCc3ccc4c(c3)OCO4)cc12,"inconclusive: 25.1 µM [inhibitor, full curve, poor fit]"
18,CCc1ccc(C(=O)NC(=S)Nc2ccc(N3CCOCC3)cc2)cc1,active: 20 µM
19,CC(=O)c1c(C)[nH]c(C(=O)OCC(=O)N2CCCC2=O)c1C,"inconclusive: 89.1 µM [inhibitor, single point]"
